73 sequences from the BET-seq Pho4 binding data (Le et al. 2018) can be followed below.

The other results are listed elsewhere or left out. These are noisy estimates, calculated here from bound and input reads.

In this test the target is T1, Pho4 (S. cerevisiae) (UniProt P07270).
T1 sequence: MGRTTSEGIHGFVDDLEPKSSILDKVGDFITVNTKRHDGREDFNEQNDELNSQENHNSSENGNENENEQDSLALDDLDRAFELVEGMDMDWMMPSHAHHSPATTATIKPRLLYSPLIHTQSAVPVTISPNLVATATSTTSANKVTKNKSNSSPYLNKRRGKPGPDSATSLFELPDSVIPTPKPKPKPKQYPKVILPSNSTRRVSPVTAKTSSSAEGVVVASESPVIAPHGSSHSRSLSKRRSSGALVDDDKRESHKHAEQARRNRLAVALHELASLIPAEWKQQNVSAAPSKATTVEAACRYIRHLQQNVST
The test is described as follows: relative binding free energy (BET-seq); higher = weaker binding. The note with it: reference: library average.
On to GAGTGCACGTGGTGAT, for which the “relative binding free energy” value was 0.14 kcal/mol.

Take ACGTGCACGTGGGCTT: the “relative binding free energy” value was -0.23 kcal/mol.

Regarding TACTGCACGTGGTAGA, the “relative binding free energy” value is 0.14 kcal/mol.

On to ATTCACACGTGAGGGT, for which the “relative binding free energy” value amounted to 0.1 kcal/mol.

For the sequence TTGTTCACGTGACGCG, the “relative binding free energy” value came out at 0.37 kcal/mol.

With GGGAGCACGTGTTCAT, the “relative binding free energy” value was -0.11 kcal/mol.

Turning to CGGTGCACGTGTGAAT, the “relative binding free energy” value stood at 0.09 kcal/mol.

With TGCTTCACGTGTATAA, the “relative binding free energy” value is 0.23 kcal/mol.

Regarding TTTGGCACGTGCGAGG, the “relative binding free energy” value is -0.1 kcal/mol.

As to TTGCGCACGTGATAGT, the “relative binding free energy” value was 0.02 kcal/mol.

On to TGGGTCACGTGCAAGC, for which the “relative binding free energy” value turned out to be 0.24 kcal/mol.

Consider TAGTGCACGTGCTGTA, for which the “relative binding free energy” value is -0.1 kcal/mol.

Consider CTAATCACGTGTGATG, for which the “relative binding free energy” value is 0.15 kcal/mol.

Turning to CGGGTCACGTGGATTA, the “relative binding free energy” value was 0.25 kcal/mol.

On to ATGGGCACGTGTTGGT, for which the “relative binding free energy” value is -0.03 kcal/mol.

Turning to TTTAGCACGTGATGGC, the “relative binding free energy” value amounted to 0.14 kcal/mol.

Consider CTTATCACGTGTGGTG, for which the “relative binding free energy” value amounted to 0.23 kcal/mol.

Regarding CAGGGCACGTGTATGT, the “relative binding free energy” value is -0.05 kcal/mol.

For AGGGGCACGTGCCGGT, the “relative binding free energy” value is -0.36 kcal/mol.

With CTGTGCACGTGGAGGT, the “relative binding free energy” value is -0.01 kcal/mol.

For GTAAACACGTGGGGGA, the “relative binding free energy” value is -0.13 kcal/mol.

Take TGCAGCACGTGTTGGC: the “relative binding free energy” value was -0.05 kcal/mol.

As for GGTGTCACGTGAGTCA, the “relative binding free energy” value stood at 0.28 kcal/mol.

Take TGATTCACGTGCTTAT: the “relative binding free energy” value came out at 0.16 kcal/mol.

As for TAGTACACGTGATGGC, the “relative binding free energy” value amounted to 0.2 kcal/mol.

Consider AGAGGCACGTGGTGCG, for which the “relative binding free energy” value is -0.2 kcal/mol.

On to TATTGCACGTGGACGG, for which the “relative binding free energy” value was -0.12 kcal/mol.

For GACTCCACGTGGGGGG, the “relative binding free energy” value is -0.15 kcal/mol.

With GCTGTCACGTGCGTGG, the “relative binding free energy” value came to 0.03 kcal/mol.

As to TTGACCACGTGGGGCG, the “relative binding free energy” value is -0.17 kcal/mol.

For the sequence ATATTCACGTGGGTAC, the “relative binding free energy” value is 0.14 kcal/mol.

As to GTTTACACGTGGGGGC, the “relative binding free energy” value turned out to be 0.13 kcal/mol.

Take ATGGTCACGTGCCTGT: the “relative binding free energy” value is -0.07 kcal/mol.

For AAAGACACGTGGGGCT, the “relative binding free energy” value was -0.06 kcal/mol.

With AGTAGCACGTGGGGAA, the “relative binding free energy” value was -0.09 kcal/mol.

With TTGTTCACGTGTATGT, the “relative binding free energy” value came to 0.34 kcal/mol.

On to CGGTGCACGTGTAAGG, for which the “relative binding free energy” value is 0 kcal/mol.

For TGTCACACGTGCGTGT, the “relative binding free energy” value was 0.01 kcal/mol.

GATTTCACGTGACTTG: the “relative binding free energy” value was 0.29 kcal/mol.

As to GGGCTCACGTGTAGGA, the “relative binding free energy” value amounted to 0.13 kcal/mol.

With ATCGGCACGTGTGTTG, the “relative binding free energy” value is -0.03 kcal/mol.

As for TGAATCACGTGAATTG, the “relative binding free energy” value was 0.32 kcal/mol.

In the case of TGTGGCACGTGGAGGC, the “relative binding free energy” value is -0.06 kcal/mol.

Consider AATGGCACGTGGGGAG, for which the “relative binding free energy” value is -0.21 kcal/mol.

Turning to GGGGGCACGTGGACGG, the “relative binding free energy” value was -0.14 kcal/mol.

Regarding GGGAGCACGTGTCGGG, the “relative binding free energy” value is -0.11 kcal/mol.

TGGATCACGTGGATTA: the “relative binding free energy” value was 0.09 kcal/mol.

For AGTGGCACGTGTGCGT, the “relative binding free energy” value is -0.15 kcal/mol.

With TTGACCACGTGGTGAT, the “relative binding free energy” value is -0.2 kcal/mol.

For GTAAGCACGTGAGTTC, the “relative binding free energy” value came to 0.23 kcal/mol.

As to AAATTCACGTGAGCGG, the “relative binding free energy” value was 0.5 kcal/mol.

Take ATATGCACGTGCTGTT: the “relative binding free energy” value was 0.01 kcal/mol.

For TTTTTCACGTGTAATT, the “relative binding free energy” value came to 0.33 kcal/mol.

Consider CTATACACGTGGGGGG, for which the “relative binding free energy” value was -0.19 kcal/mol.

With CGTAGCACGTGTGTAA, the “relative binding free energy” value is -0.07 kcal/mol.

As to GGGAACACGTGTTGAG, the “relative binding free energy” value stood at 0.04 kcal/mol.

For CTTGTCACGTGATGGT, the “relative binding free energy” value came to 0.17 kcal/mol.

For TAGGACACGTGAACGG, the “relative binding free energy” value came to 0.38 kcal/mol.

Take TTAATCACGTGGGCTA: the “relative binding free energy” value was 0.06 kcal/mol.

Regarding TAAGGCACGTGTTAAA, the “relative binding free energy” value was -0.07 kcal/mol.

For the sequence TTGTTCACGTGGCGTT, the “relative binding free energy” value amounted to 0.13 kcal/mol.

For the sequence AGAAGCACGTGGTCGT, the “relative binding free energy” value was -0.12 kcal/mol.

Turning to GGTGCCACGTGTGTAT, the “relative binding free energy” value is -0.1 kcal/mol.

In the case of ATCTTCACGTGGTGTT, the “relative binding free energy” value came out at 0.25 kcal/mol.

For CAAATCACGTGTGGTT, the “relative binding free energy” value came to 0.26 kcal/mol.

For AGTGGCACGTGCAGGG, the “relative binding free energy” value is -0.15 kcal/mol.

On to ATTCGCACGTGGTCGT, for which the “relative binding free energy” value is -0.11 kcal/mol.

With ACATGCACGTGTGTTG, the “relative binding free energy” value was -0.23 kcal/mol.

Take GGGCCCACGTGGTGGG: the “relative binding free energy” value was -0.13 kcal/mol.

Consider AGGGACACGTGAATGT, for which the “relative binding free energy” value was 0.32 kcal/mol.

For the sequence ACTGTCACGTGCGGGT, the “relative binding free energy” value came out at 0.14 kcal/mol.

As for TGCGTCACGTGAGTCT, the “relative binding free energy” value amounted to 0.25 kcal/mol.

Consider ATCTGCACGTGAAGTT, for which the “relative binding free energy” value was determined as 0.22 kcal/mol.
